The record followed here is the RNAGym collection of RNA variant scans (doi:10.1093/nar/gkz1192).

Read counts are not given, so values of variants with three or more changes are uncertain.

The chains are these.
B1: CPEB3 Ribozyme (parent)
chain: UAACAGGGGGCCACAGCAGAAGCGUUCACGUCGCAGCCCCUGUCAGAUUCUGGUGAAUCUGCGAAUUCUGCUGUAUAUCUC

The variants in this data set derive from B1. Description: self-cleavage, relative activity (ratio to wild type); higher = more cleavage; in vitro, sequencing. The procedure, abridged: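 Relative activity compares each variant's cleaved/total read fraction with that of the unmutated ribozyme. To get these fractions, barcoded CPEB3 ribozyme libraries from rounds of error-prone PCR were transcribed with T7 RNA polymerase for 5 hours at 37°C and then given 15 min of DNase I treatment before EDTA was added. The RNAs were reverse transcribed with template switching and sequenced on Illumina, and DNA sequencing linked barcodes to variants. A minimum of 5 reads applied, and three batches were averaged.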
As for U54C C59A A65G U80A, the self-cleavage worked out at 0.2. In the case of A56G C71A U78C U80G it was 0.3; in that of U51A G63C A64U U80A, 0.15.

On to A56G U58C C59U, for which the self-cleavage is 0.15. On to U51A A57G G61A U78C, for which the self-cleavage worked out at 0.38. With U51C U69C G73A the figure was 0.69. With A56G A64U U69C U72A the figure was 0.44; with U49C U72A U80C, 0.49. In the case of U51C A75G U76A it was 0.99. As for G55C A64G C68A, the self-cleavage is 0.14. In the case of A56G A57U U74C it was 0.43. In the case of U51A A64U A65U U66C U76A A77G it was 0.1. With A56G A64G G70A the figure was 0.48; with G52A A65G U78G, 0.47; with U51A U58C U67C U69C, 0.44. As for U54C A64G A65G U72A, the self-cleavage is 0.45.

In the case of A56G U58C U80C, the self-cleavage came to 0.35. On to U49C U58G U60G U72A, for which the self-cleavage is 0.1. In the case of U54C U67A U69A U72C it was 0.19; in that of U49C U67A U69C, 0.18. With U54C U60C U67C the figure was 0.23; with A56G U60A U74C, 0.94; with A57C U66C A75G, 0.08.

Regarding A56U U74C U76C, the self-cleavage is 1.22. In the case of A56U U74A A75U, the self-cleavage was determined as 1.18. With U51A A57G U80C the figure was 0.38. As for U54C A64U U78C, the self-cleavage was 0.25. With U54G U60A C62U the figure was 0.09; with C50A U54C U72A, 0.87. Take U51A U54A A65G: the self-cleavage is 0.54. With U54C A75U C79G the figure was 1.21; with U51A A57G U60C, 0.59. In the case of U51C G53A A56G U69C U78C it was 0.85.

As for U49C U58A A75U, the self-cleavage turned out to be 0.13. Take U54C U69C G73A A77G: the self-cleavage came out at 1.07. With U49C U54C U80C the figure was 0.7; with U54C G61A U66C, 0.38. In the case of U49C U51G U54A A64U U72C it was 0.11; in that of U51C U54C U76A, 1.15. In the case of G55U C59G U60C A75U, the self-cleavage was 0.17. In the case of C50U A64G C81U it was 0.73; in that of A56G A77G U80C, 0.7.

In the case of U51A U69C U74A, the self-cleavage turned out to be 0.52. In the case of U54A G63A U72C it was 1.15; in that of U51G G73A U74C U78A, 1.32; in that of G55C U60C G73C, 0.31.

For the variant U49C U60A C68U, the self-cleavage stood at 0.08. As to G55U A57U C62U A65G, the self-cleavage is 0.12.

As to G53A A65G U72C, the self-cleavage worked out at 0.49. In the case of U51G A65G U72C U80C it was 0.6; in that of U51C U66C U80A, 0.61; in that of U54C A56G G63A C71U, 0.61. With G52C A64G U76A the figure was 0.87; with U51C A77G U80C, 1.02.

In the case of U51C A56G U58C, the self-cleavage worked out at 0.44.

Take U51A A64G A77U: the self-cleavage turned out to be 0.94. In the case of U51A U78C U80G it was 1.2; in that of U51C G55C G70C, 0.24; in that of U54A A56U A64G, 0.51. In the case of U54G U60C U66C it was 0.24; in that of U51A U72C U80C, 1.32. With U54C A56G U69C the figure was 0.23; with A56U U67C U72C U78A, 0.32; with U54C C62U U80C, 0.22. With U51C U54C A64U G73A, the self-cleavage was 0.86. In the case of G52U A64G U80A it was 0.97; in that of U49C U66C U69G, 0.2.

On to G53A C62A C71U, for which the self-cleavage came to 0.47. With U51C A64G A75U the figure was 0.95. Regarding U51C A64G G73A, the self-cleavage stood at 0.86.

Consider A56G A64U A75G U78C, for which the self-cleavage was found to be 0.39. With U51A U58C A64U U78C the figure was 0.25; with U51G A64G U66C U78C, 0.14; with A56U A65G U78G, 0.22. In the case of A56G U69A U72C G73A it was 0.3; in that of A56G C71A U78C, 0.15; in that of U51C A57G U78A, 1.05. With C50U A64G U67C U80C the figure was 0.22; with G52C U69C U80C, 0.76. As for U49C U58A U67C, the self-cleavage turned out to be 0.11.

With U51A U58A U74G U76C, the self-cleavage was found to be 0.45. In the case of A56G U58C U66C U78C it was 0.23. Regarding U51C A65G U69A U76C, the self-cleavage amounted to 0.43.

As to U51A G53C A57G, the self-cleavage worked out at 0.88. In the case of U51G A56G U72A it was 0.49; in that of U51C A64G U66C U72C, 0.41. In the case of U54C U67C C81A it was 0.25.

On to U54C A64G A75U, for which the self-cleavage is 1.04. In the case of U54C U60A U76A it was 0.7; in that of U54C U72A U74C, 1.16; in that of U51A C68A U69A, 0.6. On to A56U A65G U72A, for which the self-cleavage turned out to be 0.33.

Consider U54C U58C U60C A65G U72C U78A, for which the self-cleavage turned out to be 0.34. With U54A G61C A65G the figure was 0.23; with A57C U72A U74A, 0.41. With U49C U58C A65G the figure was 0.04; with A56C A77G U78C, 0.4. In the case of U54C U66C C71A it was 0.35; in that of U51C U58A U72C, 0.24. Turning to U54A C71G C79A, the self-cleavage was determined as 0.72. On to A56U A75G U78A, for which the self-cleavage is 0.6.

Turning to U54C U60G U72C, the self-cleavage was 0.33. Regarding U54C U60C U69A A75U, the self-cleavage was 0.41.

Take U54C A65G A77G: the self-cleavage came out at 0.35. With A56U U69C U78C the figure was 0.29; with A57C A64U U66C U67C U78C, 0.17; with U51A G63U A64G A65G, 0.23. Take G52A U67C U72A: the self-cleavage came to 0.22.

As to G52C C62U U67C C71A, the self-cleavage was 0.47. In the case of U51G U54A U72A it was 0.94; in that of U51C G52A G55C G63A G70C, 0.3. With U54A G63A U66C U76C the figure was 0.4.

On to A56G A57G U69C, for which the self-cleavage is 0.37. In the case of A56U G63A U69C U80C it was 0.39; in that of U54C A64G U76C, 0.93; in that of U49C U51C U67C U72C, 0.41. Regarding U51C G61A U66C, the self-cleavage turned out to be 0.44. For the variant U54C U60C C68U U78A, the self-cleavage was 0.42.

Turning to G52U U69A U72C C79U U80C, the self-cleavage was 0.3. With U51C G73C U78A the figure was 1.26.

Turning to U51A U58C U72A, the self-cleavage is 0.49. In the case of U51A A57G U72C it was 0.98.

C50A A57G U72C: the self-cleavage worked out at 0.53. In the case of U51A U58C U80C it was 0.37; in that of A56G A65G C68A, 0.48. On to A56G U58C U69A, for which the self-cleavage amounted to 0.3. In the case of U51A A65U U72C it was 0.45; in that of U54C A64G U72C, 0.52. With U49C U54C A64U the figure was 0.16. Regarding U54A U69C U78C, the self-cleavage is 1.17. In the case of U51C U60G U69C it was 0.16. With C50A A56G U69A the figure was 0.27; with A56G A57G A64U U72C C79U, 0.22. In the case of U54A A57G G63A U78C it was 0.86; in that of A56G C59A A65U U69C, 0.24; in that of A56G U60C U74A A77U, 0.9.

As for G55C G61A U76C, the self-cleavage is 0.17. With U54C U69C U80C the figure was 0.29; with U54C U72G G73A, 1.24; with G52C A64G G70A, 0.49. With A56G U60C U69A the figure was 0.21; with U54A U60C C71U U72C, 0.41. In the case of A56U U60C U67C it was 0.26. Consider U51A A57C U69A U76C, for which the self-cleavage was 0.34. With U54C A56G U58C U78C the figure was 0.16; with G52A A56U U66C G70U, 0.26. With U51C U66C U76C the figure was 0.58; with U51A A57G A64U U72G U80A, 0.2.

For C50U U60C A64U, the self-cleavage amounted to 0.14. In the case of U54C U72A U76C it was 1.02; in that of G52U U54G A65G U67C, 0.2; in that of A56G G63A U74C, 1.2.

Turning to A56U A57U U69C, the self-cleavage came to 0.42. With U51C C59A U72C the figure was 0.22; with A56G U60C G61U U76A, 0.15; with U54C U76A U80C, 1.22. Consider U51G A57C C71G C81A, for which the self-cleavage was found to be 0.21. As to U51C U58C A64G U78C, the self-cleavage is 0.12. For the variant U51A U60C U69A G70U U72C U76C, the self-cleavage came out at 0.45.

In the case of A56U G63U U67G U76A, the self-cleavage was 0.31. Regarding U54C A57G U66C U67C U69A U76C, the self-cleavage is 0.14. With U51C G55C U58C the figure was 0.25; with U54A U67C U69A U76C, 0.54; with U51C U58C U74C U80C, 0.72.

Turning to U51C A64U U74A, the self-cleavage was found to be 0.39.

U51C U66A U67C: the self-cleavage is 0.3. With U51C A65U A77U the figure was 0.25.
